The list shows a part of the results.
B1: chr12:48362563:48362564:+_ENSG00000134291_ENST00000256686|hu_hu|hu_hu_hu_mus_False|8_18 (ssRNA)
RNA: GGGAGUUCUACAGUCCGACGAUCUCCGUCAAGCCCUUCGAUAGACCCUUGCGGGGGAAACUGUAAUCACUUUGUAUGGGGAAGGAAAAGAAACGCCAAAAACUUUCCAAAAAGCGGUUCAAAAAGCUCCCAGGCCUGGGAGGUCAACAGAGGAUUGAGCAUCA
B2: chr4:17845017:17845018:+_ENSG00000109805_ENST00000514176|hu_mus|hu_hu_hu_mus_False|8_108 (ssRNA)
RNA: GGGAGUUCUACAGUCCGACGAUCGCUUCCUAACUUAGUAUCUUCAUUAAGGAACUCUGCAAGGUUAAGUUUACUUUUCUGUAGCGCAGCUGUUUUGGCUCGUCUGGGUAAUCUCAUCUUCAUUUCUAUUCUGGUUCCAUGAUCCAACAGAGGAUUGAGCAUCA
B3: 69964036_69964156_4217_ncRNA_ENSMUSG00000029208_ENSMUST00000154728|mouse|control|control (ssRNA)
RNA: GGGAGUUCUACAGUCCGACGAUCUAUAGGCAUAAAAAAACAACAAAUGUCUAGUAAGACAUUGAGUCUAUAUCUUAAAAAGCAAGUCAUAUCAGAUCAAGCAUUUGAGCUAAAAACUGUAAUACAAGGUGAUUCCAGAAAGUUCAACAGAGGAUUGAGCAUCA
B4: chr9:104964252:104964253:+_ENSMUSG00000032563_ENSMUST00000142424|mus_mus|FALSE|FALSE (ssRNA)
RNA: GGGAGUUCUACAGUCCGACGAUCAUCUGUCACAUGAAAGAUUUUAUGUAUCUGUUUUGGUGGCAGUCCAAGAUCUCGGUAAAAUUCCAAUCUAGAGUCAGGUUUAUAGAAGCGUGACACGGUUUUCCCGCCCACUGUCAGGGCCAACAGAGGAUUGAGCAUCA
B5: chr6:31700130:31700131:-_ENSG00000213719_ENST00000375779|hu_mus|motif|central (ssRNA)
RNA: GGGAGUUCUACAGUCCGACGAUCAUCUUCGGCGCUGGUUUCAUCCACUUCUUCUGGGAGGGGGGAUGUCAGGUAAUUGUCGGGAACCUUCAGGGCUUUCAGGAGUCCCUUCUCUAGGUUGUCAUUGAGGGCUGGGUUUGAGUUCAACAGAGGAUUGAGCAUCA
B6: chr4:17845017:17845018:+_ENSG00000109805_ENST00000514176|hu_mus|hu_hu_hu_mus_False|28_68 (ssRNA)
RNA: GGGAGUUCUACAGUCCGACGAUCGCUCUCUUAACUUGUAUCUUCAUUAAGGAACUCUGCAAGGUUAGUUUACUUUUUCUGUAGCGCAGCUGUUUUGGCUCGUCUGGUAGUCUCAUCCUUCAUUUCUGAUGGUGGUUCAUGAUCCAACAGAGGAUUGAGCAUCA

target: T1, UNK ZnF1-3 (human, UniProt Q9C0B0 31-174); experiment: nsRBNS (natural sequence RNA bind-n-seq); RBNS binding buffer (assumed for nsRBNS): 25 mM Tris pH 7.5, 150 mM KCl, 3 mM MgCl2, 0.01% Triton X-100, 500 ug/ml BSA, 20 U/ml SUPERase-In, 4 C; UNK is unkempt and MSI1 is Musashi-1; names of the RNAs are library labels; protein concentration not given here; high values mean tight binding
T1 sequence: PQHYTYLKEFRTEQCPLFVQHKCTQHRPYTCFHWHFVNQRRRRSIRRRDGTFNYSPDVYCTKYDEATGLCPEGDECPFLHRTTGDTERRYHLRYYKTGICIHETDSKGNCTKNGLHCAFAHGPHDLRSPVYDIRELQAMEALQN

| Binder | binding signal |
| --- | --- |
| B1 | 1.32 enrichment R |
| B2 | 0.557 enrichment R |
| B3 | 1.94 enrichment R |
| B4 | 1.13 enrichment R |
| B5 | 0.865 enrichment R |
| B6 | 0.349 enrichment R |

Reference: publication PMC12136788
